# Test results: the supplement of paper PMC4604168 (melanoma cell lines)
# The list shows a part of the results. Single values are uncertain, as repeats are few or missing.
# How the values were obtained:
# Assay in all cases: cell count relative to DMSO control; melanoma cells; higher = more viable cells
# Conditions in all cases: library dose: standard library concentration; 72 h
# SkMel28 = test system: SkMel28
# SkMel2 = test system: SkMel2
# SkMel30 = test system: SkMel30
# SkMel5 = test system: SkMel5
# UACC257 = test system: UACC257
# UACC62 = test system: UACC62
# WM115 = test system: WM115
# WM1716 = test system: WM1716
# WM1745 = test system: WM1745
# WM3526 = test system: WM3526
# 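Also: cells treated in 1,536-well plates, then fixed and DAPI-stained, with nuclei counted from automated high-throughput microscope images.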
Compound,cell count (SkMel28),cell count (SkMel2),cell count (SkMel30),cell count (SkMel5),cell count (UACC257),cell count (UACC62),cell count (WM115),cell count (WM1716),cell count (WM1745),cell count (WM3526)
"O=C(/C=C/c1cccnc1)NCCCCC1CCN(C(=O)c2ccccc2)CC1 + Clc1ccc(Nc2nnc(Cc3ccncc3)c3ccccc23)cc1 [vatalanib] (first compound 0.05 µM, partner dose 10 µM)",74%,20.9%,81.1%,89%,75.8%,71.2%,108%,80.9%,68%,76.8%
"Cc1ccc(Nc2nccc(N(C)c3ccc4c(C)n(C)nc4c3)n2)cc1S(N)(=O)=O [Pazopanib] + CS(=O)(=O)c1ccc(C(=O)Nc2ccc(Cl)c(-c3ccccn3)c2)c(Cl)c1 [vismodegib] (first compound 2 µM, partner dose 5 µM)",78.4%,108%,90.4%,104%,86.7%,80.8%,103%,102%,108%,93.7%
"O=C(/C=C/c1cccnc1)NCCCCC1CCN(C(=O)c2ccccc2)CC1 + O=C(CCCCCCC(=O)Nc1ccccc1)NO [vorinostat] (first compound 0.05 µM, partner dose 0.4 µM)",51.6%,64.2%,85%,81.2%,68.4%,67.7%,67.4%,83.4%,73.9%,76%
"Cc1ccc(Nc2nccc(N(C)c3ccc4c(C)n(C)nc4c3)n2)cc1S(N)(=O)=O [Pazopanib] + Cc1cc(N2CCOCC2)cc2[nH]c(-c3c(NC[C@@H](O)c4cccc(Cl)c4)cc[nH]c3=O)nc12 [BMS536924] (first compound 2 µM, partner dose 1 µM)",63%,83.3%,68.4%,65.6%,87.5%,88.2%,96.8%,90.4%,56.1%,68.7%
"Cc1ccc(Nc2nccc(N(C)c3ccc4c(C)n(C)nc4c3)n2)cc1S(N)(=O)=O [Pazopanib] + C#Cc1cccc(Nc2ncnc3cc(OCCOC)c(OCCOC)cc23)c1 [erlotinib] (first compound 2 µM, partner dose 4 µM)",64.4%,67.5%,70.7%,57%,79.1%,44.4%,61.8%,73.3%,62.2%,52.2%
"CC1(C)CCC(c2ccc(Cl)cc2)=C(CN2CCN(c3ccc(C(=O)NS(=O)(=O)c4ccc(N[C@H](CCN5CCOCC5)CSc5ccccc5)c(S(=O)(=O)C(F)(F)F)c4)cc3)CC2)C1 + CN(C)S(=O)(=O)c1ccc2c(c1)/C(=C/c1cc3c([nH]1)CCCC3)C(=O)N2 [SU6656] (first compound 2 µM, partner dose 2 µM)",42.5%,59.4%,60%,70.5%,39.5%,64.1%,30.3%,51.5%,5.66%,62.5%
"Cc1ccc(Nc2nccc(N(C)c3ccc4c(C)n(C)nc4c3)n2)cc1S(N)(=O)=O [Pazopanib] + Nc1ccn([C@@H]2O[C@H](CO)[C@@H](O)C2(F)F)c(=O)n1 [gemcitabine] (first compound 2 µM, partner dose 0.002 µM)",107%,115%,81.1%,76.7%,94.3%,46.7%,105%,69.2%,54.9%,88.5%
"O=C(/C=C/c1cccnc1)NCCCCC1CCN(C(=O)c2ccccc2)CC1 + COc1cc2c(Oc3ccc4[nH]c(C)cc4c3F)ncnc2cc1OCCCN1CCCC1 [cediranib] (first compound 0.05 µM, partner dose 2 µM)",98.1%,28.2%,104%,106%,95.1%,106%,95.6%,83.6%,82%,92.2%
"O=C(/C=C/c1cccnc1)NCCCCC1CCN(C(=O)c2ccccc2)CC1 + CN1CCN(c2ccc3nc(-c4c(N)c5c(F)cccc5[nH]c4=O)[nH]c3c2)CC1 [Dovitinib] (first compound 0.05 µM, partner dose 0.5 µM)",52.1%,10.4%,81.7%,81.6%,79.4%,67.3%,64.2%,51.5%,52.2%,71.3%
"O=C(/C=C/c1cccnc1)NCCCCC1CCN(C(=O)c2ccccc2)CC1 + CC(C)C[C@H](NC(=O)[C@H](Cc1ccccc1)NC(=O)c1cnccn1)B(O)O [Bortezomib] (first compound 0.05 µM, partner dose 0.005 µM)",22.2%,3.16%,28.9%,32%,83.1%,70.6%,29.5%,15.6%,15.2%,22%
"Cc1ccc(Nc2nccc(N(C)c3ccc4c(C)n(C)nc4c3)n2)cc1S(N)(=O)=O [Pazopanib] + CC1(C)NC(=O)N(c2ccc([N+](=O)[O-])c(C(F)(F)F)c2)C1=O [nilutamide] (first compound 2 µM, partner dose 5 µM)",91.2%,97.8%,99.5%,74%,79%,67.2%,136%,106%,104%,82.4%
"O=C(/C=C/c1cccnc1)NCCCCC1CCN(C(=O)c2ccccc2)CC1 + Cn1c(Nc2ccc(C(F)(F)F)cc2)nc2cc(Oc3ccnc(-c4ncc(C(F)(F)F)[nH]4)c3)ccc21 [CHIR265] (first compound 0.05 µM, partner dose 0.4 µM)",35.2%,19.8%,59.2%,36.9%,73.6%,49.6%,38.5%,54.6%,60.5%,49.1%
"CC1(C)CCC(c2ccc(Cl)cc2)=C(CN2CCN(c3ccc(C(=O)NS(=O)(=O)c4ccc(N[C@H](CCN5CCOCC5)CSc5ccccc5)c(S(=O)(=O)C(F)(F)F)c4)cc3)CC2)C1 + Cc1cn(-c2cc(NC(=O)c3ccc(C)c(Nc4nccc(-c5cccnc5)n4)c3)cc(C(F)(F)F)c2)cn1 [nilotinib] (first compound 2 µM, partner dose 1 µM)",66.5%,73.9%,79.6%,65.3%,37.4%,72.6%,74.8%,54%,1.16%,82.1%
"O=C(/C=C/c1cccnc1)NCCCCC1CCN(C(=O)c2ccccc2)CC1 + CCCS(=O)(=O)Nc1ccc(F)c(C(=O)c2c[nH]c3ncc(Cl)cc23)c1F [PLX4720] (first compound 0.05 µM, partner dose 0.4 µM)",54.7%,16.9%,95.4%,81.4%,97.3%,64.5%,86.9%,72.9%,74.2%,73.3%
"O=C(/C=C/c1cccnc1)NCCCCC1CCN(C(=O)c2ccccc2)CC1 + COc1cc(Nc2ncc(F)c(Nc3ccc4c(n3)NC(=O)C(C)(C)O4)n2)cc(OC)c1OC [Tamatinib] (first compound 0.05 µM, partner dose 2 µM)",62.4%,31.4%,117%,48.9%,95%,96.2%,71.5%,60.9%,48.4%,74.4%
"O=C(/C=C/c1cccnc1)NCCCCC1CCN(C(=O)c2ccccc2)CC1 + CNC(=O)c1cc(Oc2ccc(NC(=O)Nc3ccc(Cl)c(C(F)(F)F)c3)cc2)ccn1 [sorafenib] (first compound 0.05 µM, partner dose 2 µM)",111%,4.27%,103%,84.2%,81.7%,70.6%,88.6%,101%,91.5%,85.9%
"CC1(C)CCC(c2ccc(Cl)cc2)=C(CN2CCN(c3ccc(C(=O)NS(=O)(=O)c4ccc(N[C@H](CCN5CCOCC5)CSc5ccccc5)c(S(=O)(=O)C(F)(F)F)c4)cc3)CC2)C1 + Cn1c(=O)n(-c2ccc(C(C)(C)C#N)cc2)c2c3cc(-c4cnc5ccccc5c4)ccc3ncc21 [NVP-BEZ235] (first compound 2 µM, partner dose 0.02 µM)",38.5%,44%,46.7%,61.2%,43.7%,55.5%,30.3%,52.8%,4.31%,71.5%
"CC1(C)CCC(c2ccc(Cl)cc2)=C(CN2CCN(c3ccc(C(=O)NS(=O)(=O)c4ccc(N[C@H](CCN5CCOCC5)CSc5ccccc5)c(S(=O)(=O)C(F)(F)F)c4)cc3)CC2)C1 + Nc1ncn([C@H]2C[C@H](O)[C@@H](CO)O2)c(=O)n1 [decitabine] (first compound 2 µM, partner dose 0.5 µM)",89.5%,75.5%,57.4%,80.6%,46.8%,62.2%,57.6%,48.6%,5.18%,97%
"CC1(C)CCC(c2ccc(Cl)cc2)=C(CN2CCN(c3ccc(C(=O)NS(=O)(=O)c4ccc(N[C@H](CCN5CCOCC5)CSc5ccccc5)c(S(=O)(=O)C(F)(F)F)c4)cc3)CC2)C1 + Cc1ccc(Nc2nccc(N(C)c3ccc4c(C)n(C)nc4c3)n2)cc1S(N)(=O)=O [Pazopanib] (first compound 2 µM, partner dose 2 µM)",71.8%,88.5%,58.4%,84.2%,37.7%,60.5%,82.8%,49%,7.23%,70.1%
"O=C(/C=C/c1cccnc1)NCCCCC1CCN(C(=O)c2ccccc2)CC1 + Cc1ccc(NC(=O)c2cccc(N(C)C)c2)cc1NC(=O)c1ccc(O)cc1 [ZM336372] (first compound 0.05 µM, partner dose 10 µM)",74.6%,30.6%,110%,114%,105%,98%,83.5%,113%,113%,87.2%
"CC1(C)CCC(c2ccc(Cl)cc2)=C(CN2CCN(c3ccc(C(=O)NS(=O)(=O)c4ccc(N[C@H](CCN5CCOCC5)CSc5ccccc5)c(S(=O)(=O)C(F)(F)F)c4)cc3)CC2)C1 + CS(=O)(=O)c1ccc(C(=O)Nc2ccc(Cl)c(-c3ccccn3)c2)c(Cl)c1 [vismodegib] (first compound 2 µM, partner dose 5 µM)",79.4%,77.1%,62.3%,64.8%,35%,61%,67.8%,58.2%,3.09%,69.5%
